Several values for one entry are separate records, joined by “and”; a condition that tells them apart may be missing. Equal values may be shown once. Hit rate of the full screen: of about 420,000 compounds, about 64,000 (15%) were called active. Inconclusive results, whose numbers are uncertain, are shown with a selection of clear calls. Calls follow the shape of the dose curve; as a rule, active = well fitted inhibition curve with a large enough effect; inconclusive = small, poorly fitted or top-dose-only effect; inactive = flat fitted curve, though single readings scatter. Where the call is inconclusive, the potency comes from a doubtful curve fit.
Test: qHTS for Inhibitors of human tyrosyl-DNA phosphodiesterase 1 (TDP1): qHTS in cells in absence of CPT; also: nearly all actives have a fitted effect of over 55% in size
Conditions: DT40 Tdp1-/- hTDP1 cells, no CPT, ATP luminescence, 48 h; activity change, negative = growth inhibition: at 46.2 µM (top of the series) unless noted
Summary of the method: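 Luminescent ATP content (CellTiter-Glo) served as the growth readout. Knockout chicken DT40 cells expressing human TDP1 were exposed to compounds without camptothecin for a minimum 48 hr at 37 °C.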
% is scaled to controls: 0 for no effect and ±100 for the full control effect; potency is read from the fitted curve at half-maximal effect; tags tell the direction and shape of the fitted curve.

| Compound | activity change, negative = growth inhibition | Potency |
| --- | --- | --- |
| CCOC(=O)CNc1c(-c2ccc(O)cc2)nc2ccccn12 | inactive: -27.4% | – |
| COc1cccc(CNC(=O)C2CCN(c3ncnc4c3nc3n4CCCCC3)CC2)c1 | – | inactive and inconclusive: 25.9 µM [inhibitor, single point] |
| Cc1cc(-c2ccc(C)c(S(=O)(=O)NCCc3ccccc3)c2)on1 | – | inconclusive: 14.6 µM [inhibitor, partial curve] |
| O=C(c1cccc(S(=O)(=O)N2CCOCC2)c1)N1CCC(Cc2ccccc2)CC1 | – | inconclusive: 16.4 µM [inhibitor, partial curve, poor fit] |
| Cc1[nH]c2ccccc2c1SCCNC(=O)c1ccc(F)cc1 | – | inconclusive: 29.1 µM [inhibitor, single point] |
| Cc1nc2ccc(NC(=O)c3ccc(Cl)c(S(=O)(=O)N(C)c4ccccc4)c3)cc2s1 | – | active: 3.26 µM |
| CC(C)c1ccc(NC(=O)CSC2=Nc3ccccc3C3=NC(CC(=O)NCCc4ccccc4)C(=O)N23)cc1 (stereo unspecified) | – | inconclusive: 25.9 µM [inhibitor, single point] |
| CCCCNC(=O)C(C)N(CCN(C)C)C(=O)CCCCCN1C(=O)NC(c2ccc(Cl)cc2)C(C(=O)OCc2ccccc2)=C1C (stereo unspecified) | – | active: 16.4 µM |
| COc1ccccc1NC(=O)c1ccccc1Oc1ccccc1 | – | inconclusive: 18.4 µM [inhibitor, partial curve, poor fit] |
| Cc1cc(C)c(NC(=O)CNC(=O)CN(C)Cc2ccc(Br)s2)c(C)c1 | – | inconclusive: 20.6 µM [inhibitor, single point] |
| COc1ccc2c(Cl)c(C(=O)N/N=C3\CCCC(=O)C3)sc2c1 | – | inconclusive: 14.6 µM [inhibitor, partial curve, poor fit] |
| Cc1ccc(-c2nc3ccccc3s2)cc1S(=O)(=O)N1CCOCC1 | – | inconclusive: 16.4 µM [inhibitor, partial curve] |
| CCN1C/C(=C/c2cccc([N+](=O)[O-])c2)C(=O)/C(=C/c2cccc([N+](=O)[O-])c2)C1 | – | active: 0.731 µM |
| O=C1CCC[C@@H]2[C@H]3CCC[N+]4([O-])CCC[C@@H](CN12)[C@@H]34 (stereo partly specified) | inactive: 3.48% | – |
| CCc1cc(-c2nnc(SCC(=O)NC3CC3)n2C)cs1 | inactive: 1.5% | – |
| CN(Cc1ccco1)c1ccnc(-c2cccc(C#N)c2)n1 | – | inconclusive: 25.9 µM [inhibitor, single point] |
| Cn1cc(-c2cc3n(n2)CCC(=O)N3CC(=O)NCc2ccccc2)c2ccccc21 | – | inconclusive: 29.1 µM [inhibitor, single point] |
| NC(=O)NCC(c1ccccc1)C1CCCCC1 (stereo unspecified) | – | inconclusive: 29.1 µM [inhibitor, single point] |
| CC(c1ccccc1)N(NC(=O)C(O)(c1ccccc1)c1ccccc1)C(=O)c1ccccc1 (stereo unspecified) | – | inconclusive: 13 µM [inhibitor, partial curve] |
| COc1ccc(/C=N\NC(=O)COc2ccc(C(C)(C)C)cc2)cc1Cn1nc(C)cc1C | – | active: 20.6 µM |
| COc1ccc(NC(=O)CSc2cccc3cccnc23)c(OC)c1 | – | inconclusive: 29.1 µM [inhibitor, single point] |
| O=C(Cc1ccc(S(=O)(=O)N2CCOCC2)s1)N1CCN(c2ccc(C(F)(F)F)cc2[N+](=O)[O-])CC1 | – | active: 9.2 µM |
| O=c1[nH]cnc2c1sc(=S)n2-c1ccccc1 | – | inconclusive: 29.1 µM [inhibitor, single point] |
| FC(F)(F)c1cc(-c2ccco2)nc(NCc2ccccc2)n1 | – | inconclusive: 25.9 µM [inhibitor, single point] |

| Compound | activity change, negative = growth inhibition | Potency |
| --- | --- | --- |
| O=C(O)c1cc2c(cc1NC(=O)c1c(F)cccc1Cl)OCCCO2 | inactive: -9.76% | – |
| O=C(Oc1ccccc1)N1CCC2(CCCN(c3ccccc3)C2)CC1 | inactive: -19.6% | – |
| Cc1c(NC(=O)c2nn3c(C(F)(F)F)cc(-c4ccccc4)nc3c2Br)c(=O)n(-c2ccccc2)n1C | – | inconclusive: 20.6 µM [inhibitor, single point] |
| Cc1cc2ccccn2c1C(=O)c1ccc(F)cc1 | – | inconclusive: 29.1 µM [inhibitor, single point] |
| CCOc1ccccc1NC(=O)N1CCCN(c2ncccc2C#N)CC1 | – | inconclusive: 25.9 µM [inhibitor, single point] |
| Cn1c(NC(=O)/C=C/c2ccccc2)cc(=O)n(C)c1=O | – | inconclusive: 10.3 µM [inhibitor, single point] |
| Cc1ccccc1CN1CCN(C(=O)[C@H]2O[C@@H](n3cnc4c(N)ncnc43)[C@H](O)[C@@H]2O)CC1 | – | inconclusive: 18.4 µM [inhibitor, single point] |
| COC(=O)CN1C(=O)N/C(=C/c2ccc(C)o2)C1=O | inactive: 6.58% | – |
| O=C(Cc1cccc2ccccc12)N/N=C/c1ccc2cccc(O)c2n1 | – | active: 14.6 µM |
| Cc1ccc(N2C(=O)CC(N3CCN(C4CCc5ccccc5C4)CC3)C2=O)cc1 (stereo unspecified) | – | inconclusive: 0.517 µM [inhibitor, full curve, poor fit] |
| CCOc1ccccc1Nc1nnc(SCC(=O)Nc2cc(C)on2)s1 | inconclusive: -33.9% [inhibitor] | – |
| Cc1cccc(Cn2c(SCc3ccc(C(=O)NCc4cccs4)cc3)nc3ccncc32)c1 | – | active: 23.1 µM |
| O=S(=O)(c1ccc(OCC(O)CN2CCc3ccccc3C2)cc1)N1CCOCC1 (stereo unspecified) | inactive: -27.5% | – |
| Cc1ccc(C)c(/C=C2\CCn3c2nc2cc(C(=O)O)ccc2c3=O)c1 | – | inconclusive: 29.1 µM [inhibitor, single point] |
| COc1cc(OC)c(OC)cc1CNCc1ccc2c(c1)OCO2 | – | inconclusive: 29.1 µM [inhibitor, single point] |
| CCCCNC(=S)N(C)/N=C/c1ccc2c(c1)OCO2 | – | inconclusive: 32.6 µM [inhibitor, partial curve, poor fit] |
| COc1ccc2c(=O)c(-c3ccc(C)cc3)c(-c3ccccc3)oc2c1 | – | active: 7.31 µM |
| O=C(O)/C(=N/NC(=O)c1ccc(Cl)cc1)c1ccccc1 | inactive: 16.7% | – |
| O=C(CSc1nncn1-c1ccccc1)N1CCCC1 | inactive: -4.77% | – |
| CCCCc1cc(=O)oc2cc(OCC(=O)NCCN3CCOCC3)c(Cl)cc12 | – | active: 18.4 µM |
| CCOC(=O)NC(=O)/C(C=Nc1ccc(Cl)c(Cl)c1Cl)=C(\C)O | – | inconclusive: 29.1 µM [inhibitor, single point] |
| OC(c1cccc(Cl)c1)c1nc(/C=C/c2ccccc2)cs1 (stereo unspecified) | – | inconclusive: 14.6 µM [inhibitor, partial curve] |
| COc1ccc(C(=O)Nc2ccc(N3CCCC3)cc2)cc1 | – | inconclusive: 2.31 µM [inhibitor, partial curve, poor fit] |
| COc1cc(/C=N/Nc2nc(Nc3ccccc3)nc(N3CCOCC3)n2)ccc1OC(=O)c1ccco1 | – | active: 4.11 µM |

| Compound | activity change, negative = growth inhibition | Potency |
| --- | --- | --- |
| Cc1c(Cl)cccc1-c1ccc(CNCc2ccccn2)o1 | – | inconclusive: 29.1 µM [inhibitor, single point] |
| Cc1cccc(C(=O)NCc2cn3cccc(C)c3n2)c1 | inactive: 2.08% | – |
| COc1ccc([C@H]2CC(=O)C=C(c3c(OC)cccc3OC)C2)cc1 | – | active: 2.06 µM |
| COc1ccccc1-c1cncnc1NCCNC(C)=O | – | inconclusive: 11.6 µM [inhibitor, single point] |
| CCOc1ccccc1-c1nc(CN2CCC(C(=O)N3CCOCC3)CC2)c(C)o1 | inactive: 0.579% | – |
| CC[C@H](C)NC(=O)CCCc1nnc2n(CCC(C)C)c(=O)c3sccc3n12 | – | inconclusive: 23.1 µM [inhibitor, single point] |
| CC1CCCN(S(=O)(=O)c2ccc3c(c2)CCN3C(=O)C2CCC2)C1 (stereo unspecified) | inactive: -28.6% | – |
| c1ccc(-c2sc3ccccc3c2-c2ccc(OCCN3CCOCC3)cc2)cc1 | – | inconclusive: 16.4 µM [inhibitor, single point] |
| COc1cc(-c2coc3c(C(=O)NCc4ccc(OC)c(OC)c4)cccc23)ccc1O | – | active: 4.61 µM |
| Cc1ccnc(NC(c2cc(C)ccc2O)c2ccc3cccnc3c2O)c1 (stereo unspecified) | – | active: 10.3 µM |
| CCc1ccc(CN(C)C(C)C(=O)Nc2ccc(S(=O)(=O)N3CCCC3)cc2)cc1 (stereo unspecified) | – | active: 16.4 µM |
| COc1ccc(OC)c(CCNC(=O)Cn2ccc3cc(S(=O)(=O)N4CCCC4)ccc32)c1 | – | inconclusive: 20.6 µM [inhibitor, partial curve] |
| N#Cc1c(SCC(N)=O)nc(-c2ccccc2)c2c1CCCC2 | – | inconclusive: 5.8 µM [inhibitor, partial curve] |
| Cc1ccc(C(=O)O)c(C(=O)Nc2nc3ccccc3s2)c1 | inactive: 30.4% | – |
| Cc1ccc(-n2c(=O)c3cccnc3n2CC(=O)Nc2ccccc2C(F)(F)F)cc1C | – | inconclusive: 18.4 µM [inhibitor, single point] |
| C/C(=N\NC(=O)c1nnn(-c2nonc2N)c1-c1cccs1)c1cccc(O)c1 | inactive: -12% | – |
| Cn1c(N)c(C#N)c(C#N)c1-c1ccccc1 | inactive: -22.3% | – |
| CC1(NC(=O)/C=C/c2nc3ccccc3s2)CCS(=O)(=O)C1 (stereo unspecified) | inactive: -3.09% | – |
| O=C(OCc1cc(=O)n2c(n1)sc1ccccc12)c1ccc(O)cc1 | inactive: -3.37% | – |
| Cc1cccc(OCCCn2c(=O)sc3ccccc32)c1 | inactive: -22.4% | – |
| CCOC(=O)C1CCCN(C(=O)Cn2nc(C)n3c(cc4c(OC)cccc43)c2=O)C1 (stereo unspecified) | – | inconclusive: 29.1 µM [inhibitor, single point] |
| Cc1c(CC(=O)N2C[C@H]3C[C@@H](C2)c2cccc(=O)n2C3)c(=O)oc2cc3occ(C(C)(C)C)c3cc12 | – | inconclusive: 32.6 µM [inhibitor, partial curve, poor fit] |
| O=C(CSCc1ccccc1Br)N/N=C/c1ccc2c(c1)OCO2 | – | inconclusive: 18.4 µM [inhibitor, single point] |
